According to US20180057551A1 (AMYLONIX, published 2018):
Numbering of substitutions follows the chain as printed.

Experiments:
human Aβ1-40 peptide = target: T1, human Aβ1-40 peptide (human, biotin at the C-terminus (flow cytometry, Examples 2-4) or at the N-terminus (SPR, ELISA); unlabeled plus Alexa488/Alexa647-labeled in FCS); assay: SPR Biacore 2000, biotinylated peptide on SA chip, 1:1 Langmuir
T1 construct: synthetic peptide (AnaSpec); one entry for all labelled forms, label named under assay; also called hAβ1-40; Aβ40

human Aβ1-42 peptide = target: T2, human Aβ1-42 peptide (human, N-terminal biotin in SPR (Example 15); unlabeled in Example 7); assay: as above
Chain of human Aβ1-42 peptide (peptide, as listed by the source): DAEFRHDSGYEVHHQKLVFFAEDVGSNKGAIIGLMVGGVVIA
T2 construct: also called hAβ1-42

Chain of human Aβ1-40 peptide (peptide, as listed by the source): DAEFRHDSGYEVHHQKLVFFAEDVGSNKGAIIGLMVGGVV

B1: ABPP095b-LEHHHHHH (designed binder)
chain: AGGERVYLPNLNADQLCAFIRSLEDDPSQSSELLSEAKKLSESQAPASSSSGSSSSGRASAGGERVYLPNLNADQLCAFIRSLEDDPSQSSELLSEAKKLSESQAPKLEHHHHHH
notes: scaffold mutated ABPP095
koff (human Aβ1-40 peptide): 0.00068 s⁻¹
kon (human Aβ1-40 peptide): 50000 M⁻¹ s⁻¹
koff (human Aβ1-42 peptide): 0.0015 s⁻¹
kon (human Aβ1-42 peptide): 100000 M⁻¹ s⁻¹

B2: ABPP095c-LEHHHHHH (designed binder)
chain: B1 chain with N12T, S22K, N72T, S82K
notes: scaffold mutated ABPP095
koff (human Aβ1-40 peptide): 0.00019 s⁻¹
kon (human Aβ1-40 peptide): 81000 M⁻¹ s⁻¹
koff (human Aβ1-42 peptide): 0.00036 s⁻¹
kon (human Aβ1-42 peptide): 140000 M⁻¹ s⁻¹

B3: ABPP095a-LEHHHHHH (designed binder)
chain: B1 chain with S31A, E32N, S35A, S43A, S91A, E92N, S95A, S103A
notes: scaffold mutated ABPP095
koff (human Aβ1-40 peptide): 0.0003 s⁻¹
kon (human Aβ1-40 peptide): 74000 M⁻¹ s⁻¹
koff (human Aβ1-42 peptide): 0.00062 s⁻¹
kon (human Aβ1-42 peptide): 120000 M⁻¹ s⁻¹
